Assay results as given in the supplement of paper PMC10126150.
Values marked as one replicate rest on one cluster of the flow cell; about a third of the high ones do not repeat.

Test system: ATP
Test: switch fluorescence ratio, 500 uM ATP over buffer (Cy3 cluster intensity, sum of 5 cycles each) (fold (ratio)); higher = stronger signal-on switching upon ATP binding; sequences stand for … in TCGTCGGCAGCGTCAGATGTGTATAAGAGACAGTTTTTTTTTTTTTTTTTTTTTTTTT…TC
Settings: aptamer strand: ATP DNA aptamer (quencher-CACCTGGGGGAGTATTGCGGAGGAAGG + anchor), 100 nM annealed; ATP concentration: 500 uM; one replicate
Outline: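 Per cluster, summed Cy3 intensity from the target cycles was divided by that from the buffer cycles to give the fluorescence ratio, then averaged per switch-domain sequence. Clusters outside 100-1000 RFU were excluded. The Cy3-labelled switching-strand clusters, on a modified Illumina MiSeq flow-cell, were annealed to 100 nM quencher-labelled ATP aptamer and imaged in selection buffer, then after 15 min with 500 uM ATP at 22 °C, for five cycles with NaOH stripping and re-annealing between them.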
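Also: ATP exposure 15 min at 22 °C before imaging.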

| Sequence | switch fluorescence ratio |
| --- | --- |
| GGTTCCTAGT | 1.02 |
| GGTTCCTGGT | 0.967 |
| GGTTCGACAT | 1.03 |
| GGTTCGGGTT | 0.945 |
| GGTTCGGTCA | 0.981 |
| GGTTCTAGT | 1.01 |
| GGTTCTGTAG | 1.03 |
| GGTTGAACTT | 1 |
| GGTTGAAGC | 1.15 |
| GGTTGAATCC | 0.974 |
| GGTTGACACC | 0.982 |
| GGTTGAGCTA | 1.05 |
| GGTTGATCGG | 1.05 |
| GGTTGCCTTC | 0.952 |
| GGTTGCTCAG | 0.973 |
| GGTTGGTTAA | 0.978 |
| GGTTGTCTTC | 0.985 |
| GGTTGTTAAT | 0.969 |
| GGTTTCGAGA | 0.979 |
| GGTTTGGATT | 0.969 |
| GGTTTGGTCT | 0.952 |
| GGTTTTACAA | 0.999 |
| GGTTTTCTCT | 0.996 |
| GGTTTTTAT | 1.02 |
| GGTTTTTGCC | 0.99 |

| Sequence | switch fluorescence ratio |
| --- | --- |
| GTAAATCCTT | 1.02 |
| GTAAATTATT | 0.962 |
| GTAACAGGAG | 1.02 |
| GTAACATTGA | 0.964 |
| GTAACTTTAT | 1.02 |
| GTAAGCTAAG | 0.995 |
| GTAAGCTAGG | 1 |
| GTAAGGGCTT | 0.981 |
| GTAAGTAAAC | 0.971 |
| GTAAGTCCGC | 1.11 |
| GTAAGTGGCT | 0.98 |
| GTAATAATGA | 0.987 |
| GTAATAGACG | 0.984 |
| GTAATATACA | 1.01 |
| GTAATATCTC | 1.16 |
| GTAATCAGCG | 0.967 |
| GTAATCCCAA | 1.55 |
| GTAATTAAGT | 0.978 |
| GTAATTCAAG | 1.04 |
| GTAATTCGCA | 1.06 |
| GTACAAAACG | 1.22 |
| GTACCCCTGT | 1.01 |
| GTACGACACT | 1.75 |
| GTACGCAGC | 1.98 |
| GTACGGACCT | 1.46 |

| Sequence | switch fluorescence ratio |
| --- | --- |
| GTACGGGCAG | 1.02 |
| GTACGGGGG | 1.04 |
| GTACGTGGCG | 1.04 |
| GTACTAACAA | 1.06 |
| GTACTCGTCG | 0.99 |
| GTACTCGTGC | 1.01 |
| GTACTCTTT | 0.993 |
| GTACTGACGC | 1.18 |
| GTACTGAGTG | 1.06 |
| GTACTGGGCC | 1.02 |
| GTACTGTACG | 1.29 |
| GTACTTACAC | 1.15 |
| GTACTTAGGG | 1.02 |
| GTAGACAGCA | 1.01 |
| GTAGACTAGG | 0.986 |
| GTAGCATGAG | 1.57 |
| GTAGCGAGGA | 1.12 |
| GTAGCGTTAG | 1.04 |
| GTAGCTGCTG | 1 |
| GTAGCTGGTT | 0.981 |
| GTAGGATGGT | 1 |
| GTAGGGGCAG | 0.991 |
| GTAGGGTTCA | 1 |
| GTAGGTAGGG | 0.982 |
| GTAGGTGAGT | 0.993 |

| Sequence | switch fluorescence ratio |
| --- | --- |
| GTAGGTTGAA | 0.951 |
| GTAGTACCCA | 0.999 |
| GTAGTATCTT | 0.991 |
| GTAGTATGTT | 0.931 |
| GTAGTATTTG | 0.989 |
| GTAGTCAATG | 1.21 |
| GTAGTCACTG | 1.06 |
| GTAGTCGAGT | 0.995 |
| GTAGTCGGTC | 1.01 |
| GTAGTCTCTG | 0.979 |
| GTAGTGAGAA | 1.01 |
| GTAGTGGGGA | 1.01 |
| GTAGTTCCAT | 0.983 |
| GTAGTTTT | 0.94 |
| GTATAAGAAG | 1.06 |
| GTATACTGAC | 1.26 |
| GTATAGGGGA | 1.01 |
| GTATAGGTGT | 1.03 |
| GTATAGTGTC | 0.852 |
| GTATATCGAT | 1.01 |
| GTATATGGAA | 1.03 |
| GTATATTAAA | 0.985 |
| GTATATTTTT | 1.23 |
| GTATCCTCCA | 1.07 |
| GTATGCGAGA | 0.938 |

| Sequence | switch fluorescence ratio |
| --- | --- |
| GTATGGACTT | 0.969 |
| GTATGTGCAA | 1.08 |
| GTATTATATG | 0.972 |
| GTATTATGGC | 0.979 |
| GTATTCGGCC | 0.989 |
| GTATTGAGGC | 0.915 |
| GTATTGCCTA | 1.01 |
| GTATTGTTGG | 0.955 |
| GTATTTGCTA | 0.989 |
| GTCAAATATA | 1.03 |
| GTCAACAGGA | 0.998 |
| GTCAATGCTA | 1.09 |
| GTCAATTTTC | 0.98 |
| GTCACAAGTT | 1.03 |
| GTCACACGGA | 1 |
| GTCACATAGG | 1.05 |
| GTCACTTGAA | 1.03 |
| GTCAGATTTT | 1.01 |
| GTCAGGTGCA | 1.52 |
| GTCAGGTGTC | 1.71 |
| GTCAGTTATT | 1 |
| GTCAGTTTTC | 0.993 |
| GTCATAATTA | 0.989 |
| GTCATATTAC | 1.05 |
| GTCATCTGTT | 0.964 |

| Sequence | switch fluorescence ratio |
| --- | --- |
| GTCATGTTTT | 1 |
| GTCATTATGG | 0.975 |
| GTCATTCGA | 0.979 |
| GTCCAGCTCG | 1.03 |
| GTCCATGCCT | 1.03 |
| GTCCCGCAGG | 2.13 |
| GTCCCGGACC | 1.03 |
| GTCCCTGTGG | 1.01 |
| GTCCGGCCGC | 1.1 |
| GTCCGGGACA | 0.95 |
| GTCCGGGTAA | 1.07 |
| GTCCGTCTGT | 1.06 |
| GTCCGTGCGC | 1.28 |
| GTCCTATTCA | 0.987 |
| GTCCTGGCCA | 0.987 |
| GTCCTTAGGT | 0.973 |
| GTCGAGAGTA | 0.973 |
| GTCGATGTTT | 0.954 |
| GTCGCCTGTC | 1 |
| GTCGCCTTGA | 0.99 |
| GTCGCGCCAC | 1.03 |
| GTCGCGGCAT | 0.993 |
| GTCGGCCATC | 0.972 |
| GTCGGCGCGA | 1.01 |
| GTCGGGAGGG | 0.988 |

| Sequence | switch fluorescence ratio |
| --- | --- |
| GTCGGGTAGC | 1.01 |
| GTCGGTGCTC | 1.03 |
| GTCGTAGACA | 1.01 |
| GTCGTCGGTT | 1.03 |
| GTCGTGTCAG | 1.01 |
| GTCGTTAGTA | 0.975 |
| GTCGTTTTCG | 1.04 |
| GTCTAAGGAG | 0.974 |
| GTCTACCCTT | 1.08 |
| GTCTCACCTG | 1.04 |
| GTCTCCACG | 1.03 |
| GTCTCGTCAG | 0.995 |
| GTCTGAGTTT | 1.01 |
| GTCTGGCCGT | 1.01 |
| GTCTTATGGT | 0.991 |
| GTCTTCAACC | 0.967 |
| GTCTTCATGA | 0.99 |
| GTCTTCATTT | 1.02 |
| GTCTTGCGC | 1.01 |
| GTGAAACACC | 0.996 |
| GTGAAACCTG | 1.08 |
| GTGAAAGAGC | 0.952 |
| GTGAAATACT | 1.19 |
| GTGAACGT | 1.02 |
| GTGAACGTAG | 1.04 |

| Sequence | switch fluorescence ratio |
| --- | --- |
| GTGAACGTTT | 0.961 |
| GTGAACTTAT | 1.01 |
| GTGAAGGTTT | 0.995 |
| GTGAATGTCT | 0.994 |
| GTGAATTTAT | 0.947 |
| GTGACCTTAT | 1.07 |
| GTGACGGGTA | 0.941 |
| GTGACGTCC | 0.996 |
| GTGACGTGTG | 1.03 |
| GTGACTCTCT | 0.946 |
| GTGAGAACG | 1.04 |
| GTGAGACCTG | 0.932 |
| GTGAGAGGCG | 0.957 |
| GTGAGATTCG | 0.916 |
| GTGAGCCTT | 1.01 |
| GTGAGCGAGA | 0.964 |
| GTGAGCGATA | 1.2 |
| GTGAGGAATG | 1.03 |
| GTGAGGCAGC | 0.938 |
| GTGAGGCTTA | 1.01 |
| GTGAGGGCAG | 0.985 |
| GTGAGTGCTA | 0.948 |
| GTGAGTTCCG | 0.998 |
| GTGATAAGGC | 1.06 |
| GTGATATGTA | 0.957 |
